Here are results for one molecule from US20250354930A1, “IONIC LIQUID ENCAPSULATION OF NIR DYES FOR THE IMPROVEMENT OF BLOODSTAIN DETECTION” (University of Mississippi, priority 2024, published 2025).

The target of the assay is tryptophan residue of HSA (Homo sapiens, UniProt P02768). Conditions: condition 3: SO3SQ added to aqueous HSA solution already containing CG (1:1).

Turning to `CC1=C(c2ccc(OCCCCS(=O)(=O)O)cc2)/C(=C2/C(=O)C(c3c(-c4ccc(OCCCCS(=O)(=O)[O-])cc4)c(C)c4ccccn34)C2O)[n+]2ccccc21` (stereo not shown) [SO3SQ], the “reduction of the tryptophan fluorescence” value was roughly 90%.
